Measured values taken from the supplement of paper PMC8728848.
Some of the results follow.

Assays:
Assay in all cases: glycan array binding signal (z-score within array); higher = stronger binding
Conditions in all cases: glycan notation: IUPAC condensed, linker removed
[1] = biological target: Neu5Ac(a2-3)Gal(b1-4)GlcNAc(b1-6)GalNAc
Method in brief: (§1)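 Negative Z-scores can be read as non-binding. The Z-score is calculated within each array and then averaged across arrays of one protein sequence at different concentrations or buffers and across linkers. Arrays, 3228 in all, were curated from the Consortium for Functional Glycomics database and kept only where the protein sequence was available.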

[2] = biological target: Neu5Ac(a2-3)Gal(b1-4)GlcNAc(b1-6)[Gal(b1-3)]GalNAc
Method in brief: as §1

[3] = biological target: Neu5Ac(a2-3)Gal(b1-4)GlcNAc(b1-6)[Neu5Ac(a2-3)Gal(b1-3)]GalNAc
Method in brief: as §1

[4] = biological target: Neu5Ac(a2-3)Gal(b1-4)GlcNAc6S
Method in brief: as §1

[5] = biological target: Neu5Ac(a2-3)Gal(b1-4)[Fuc(a1-3)]GlcNAc
Method in brief: as §1

[6] = biological target: Neu5Ac(a2-3)Gal(b1-4)[Fuc(a1-3)]GlcNAc(b1-2)Man
Method in brief: as §1

[7] = biological target: Neu5Ac(a2-3)Gal(b1-4)[Fuc(a1-3)]GlcNAc(b1-3)Gal
Method in brief: as §1

[8] = biological target: Neu5Ac(a2-3)Gal(b1-4)[Fuc(a1-3)]GlcNAc(b1-3)Gal(b1-4)GlcNAc
Method in brief: as §1

[9] = biological target: Neu5Ac(a2-3)Gal(b1-4)[Fuc(a1-3)]GlcNAc(b1-3)Gal(b1-4)[Fuc(a1-3)]GlcNAc(b1-3)Gal(b1-4)[Fuc(a1-3)]GlcNAc
Method in brief: as §1

[10] = biological target: Neu5Ac(a2-3)Gal(b1-4)[Fuc(a1-3)]GlcNAc(b1-3)GalNAc
Method in brief: as §1

[11] = biological target: Neu5Ac(a2-3)Gal(b1-4)[Fuc(a1-3)]GlcNAc(b1-6)[Gal(b1-3)]GalNAc
Method in brief: as §1

[12] = biological target: Neu5Ac(a2-3)Gal(b1-4)[Fuc(a1-3)]GlcNAc(b1-6)[Neu5Ac(a2-3)Gal(b1-3)]GalNAc
Method in brief: as §1

[13] = biological target: Neu5Ac(a2-3)Gal(b1-4)[Fuc(a1-3)]GlcNAc6S
Method in brief: as §1

[14] = biological target: Neu5Ac(a2-3)Gal6S(b1-4)GlcNAc
Method in brief: as §1

[15] = biological target: Neu5Ac(a2-3)Gal6S(b1-4)[Fuc(a1-3)]GlcNAc
Method in brief: as §1

Neu5Ac(a2-3)GalNAc = biological target: Neu5Ac(a2-3)GalNAc
Method in brief: as §1

[16] = biological target: Neu5Ac(a2-3)GalNAc(b1-4)GlcNAc
Method in brief: as §1

[17] = biological target: Neu5Ac(a2-3)[GalNAc(b1-4)]Gal(b1-4)Glc
Method in brief: as §1

[18] = biological target: Neu5Ac(a2-3)[GalNAc(b1-4)]Gal(b1-4)GlcNAc
Method in brief: as §1

[19] = biological target: Neu5Ac(a2-3)[GalNAc(b1-4)]Gal(b1-4)GlcNAc(b1-3)GalNAc
Method in brief: as §1

[20] = biological target: Neu5Ac(a2-3)[Neu5Ac(a2-6)]GalNAc
Method in brief: as §1

Neu5Ac(a2-6)Gal = biological target: Neu5Ac(a2-6)Gal
Method in brief: as §1

[21] = biological target: Neu5Ac(a2-6)Gal(b1-3)GlcNAc(b1-3)[Gal(b1-4)GlcNAc(b1-6)]Gal(b1-4)Glc
Method in brief: as §1

B1: PX9961H-bth-557-24-557 (Bacteroides thetaiotaomicron) (protein)
chain: EETRTEVEKKNYMNNAEEAKDVLLGVYRTNTLDAMYGYYLSILFNLGTDISQVEGSGNENFRIIPTNSFPTTQSEVQQTWAALYTGIYRANDFLERISNKIGSYTTTDKKLATLYIAEARALRGMFYFELVRRFGNVVLMTSTQMSNQNPATYVQSAPEKVYEYIEDDLLYACDILPYATDDQYRESNDYRFSKGAALGLLTKVYATWAGYPVKDESKWEAAAKTARILVESGKHGLLKDYEQLWKNTCNGTWDPTESLIEISFYSPTVSGNSDPVGRIGKWNGVKTTAIAGVRGSCAANVKVVHTFVLDWREDVSDIRRDLSIANYQYTDTKKSLWVAGASDTDESAAEKDADPTKAQKNKQNYTPAKWDIQKYVTTNSFINNDKSNVNWYFLRYADVLLLYAEALNEWKHGPDAEAYNAINAVRRRGYGNPSNTSACDLPQGLDETSFREAVRKERSYELSFEGHRRQDLIRWGIYYKTVQATAKELGYWWEGTGSPNYSVATYTEEGKHELFPIPQRDMDLCIQFNQNPKW
[1]
  glycan array binding signal (z-score): -0.505
[2]
  glycan array binding signal (z-score): -0.448
[3]
  glycan array binding signal (z-score): -0.64
[4]
  glycan array binding signal (z-score): -0.48
[5]
  glycan array binding signal (z-score): -0.576
[6]
  glycan array binding signal (z-score): -0.138
[7]
  glycan array binding signal (z-score): -0.245
[8]
  glycan array binding signal (z-score): 0.014
[9]
  glycan array binding signal (z-score): -0.227
[10]
  glycan array binding signal (z-score): -0.392
[11]
  glycan array binding signal (z-score): 0.835
[12]
  glycan array binding signal (z-score): 1.13
[13]
  glycan array binding signal (z-score): -0.214
[14]
  glycan array binding signal (z-score): -0.532
[15]
  glycan array binding signal (z-score): -0.729
Neu5Ac(a2-3)GalNAc
  glycan array binding signal (z-score): -0.217
[16]
  glycan array binding signal (z-score): -0.348
[17]
  glycan array binding signal (z-score): 0.293
[18]
  glycan array binding signal (z-score): -0.571
[19]
  glycan array binding signal (z-score): -0.338
[20]
  glycan array binding signal (z-score): -0.556
Neu5Ac(a2-6)Gal
  glycan array binding signal (z-score): -0.101
[21]
  glycan array binding signal (z-score): -0.088
